Molecules are shown by their SMILES. Out of some 150,000 compounds screened, about 540 (0.36%) showed an effect of 50% or more. The list shows a part of the results.

The test relates to Plasmodium falciparum. In words: Primary screen in NF54 nanoGlo assay, in single point, at 2uM, 72h; a lower Z score goes with more inhibition. The format is functional, Erythrocyte. To be noted: timepoint 72 hour.
On to `CN(C)S(=O)(=O)NC1(C)CCCCCC1`, for which the % Inhibition (as a rule, the relative decrease from the control value, in per cent) stood at 8% and the Z score is -1.18.

Turning to `c1ccc([C@H](CCn2cncn2)NC2CCN(c3ccc4c(c3)OCO4)CC2)cc1`, the “% Inhibition” value is listed as -2% and the Z score was 0.35.

On to `O=C([C@@H]1CC=CCC1)N1CC(Nc2cccnn2)C1`, for which the “% Inhibition” value is -7% and the Z score was 0.85.

On to `CCn1cnnc1CNC(=O)OCC1CCCCC1`, for which the “% Inhibition” value came to 15% and the Z score was -1.8.

For `CC[C@H]1CCCCCN1C(=O)NCCOC`, the “% Inhibition” value is listed as -7% and the Z score was determined as 1.02.

Take `CC(C)N[C@H]1[C@H](O)[C@@H](n2cnc3ccccc32)[C@@H]2OC[C@H]1O2`: the “% Inhibition” value is reported as 31% and the Z score is on record as -3.54.

In the case of `COc1ccc(C)cc1S(=O)(=O)[C@H]1CS(=O)(=O)C[C@@H]1N1CCC(C(N)=O)CC1`, the “% Inhibition” value is listed as -10% and the Z score was determined as 1.35.

In the case of `COCCNC(=O)c1cccnc1Oc1cccc(NS(=O)(=O)c2ccccc2)c1`, the “% Inhibition” value was -1% and the Z score was determined as 0.18.

Regarding `CCc1ccc(S(=O)(=O)N2CCN(c3ccc(-c4cccs4)nn3)CC2)s1`, the “% Inhibition” value is -12% and the Z score is reported as 1.86.

Regarding `O=C(NC(Cc1ccccc1)c1cccs1)C1COCCO1` (centres undefined), the “% Inhibition” value is -13% and the Z score came out at 2.36.

`Cc1cc(C(=O)N2CC(c3nc(C4CC4)no3)C2)c(C)o1`: the “% Inhibition” value is -10% and the Z score is recorded as 1.98.

Regarding `O=C(CN1C[C@@H]2CC[C@H]1CN(Cc1cscn1)C2)N1CCc2ccccc21`, the “% Inhibition” value is on record as -1% and the Z score is 0.08.

Regarding `N#CCCNC[C@H]1CN(C2CC2)CCO1`, the “% Inhibition” value is listed as -6% and the Z score was found to be 0.57.

As to `Cc1ccc2nc(N3CCC[C@H](O)C3)c(CN3CCCN(C)CC3)cc2c1`, the “% Inhibition” value was -6% and the Z score was 1.13.

In the case of `CCc1cc(CC(=O)N2CCC(n3ccnn3)CC2)n(C)n1`, the “% Inhibition” value was -8% and the Z score is given as 0.96.

As for `CC1CCN(C(=O)Cn2ccc(=O)[nH]c2=O)CC1`, the “% Inhibition” value is -1% and the Z score worked out at 0.19.

Take `CC(C)(C)c1ccc(S(=O)(=O)N2CC(=O)N3CCc4ccccc4[C@@H]3C2)cc1`: the “% Inhibition” value is reported as 4% and the Z score was -0.73.

`CC(C)OCCS(=O)(=O)NCC1(N)CCCCC1`: the “% Inhibition” value is on record as 6% and the Z score is given as -1.03.

As for `CC(C)n1ncc(C(=O)N[C@H]2CCCNC2=O)c1N`, the “% Inhibition” value turned out to be 0% and the Z score worked out at 0.06.

In the case of `C[C@H]1c2nncn2CCN1C(=O)c1cc(C2CC2)nn1C`, the “% Inhibition” value was -15% and the Z score was 2.32.

With `CC[C@H](C)S(=O)(=O)NC(=O)c1cnn(C)n1`, the “% Inhibition” value was -3% and the Z score turned out to be 0.51.

For `NC(=O)c1cc(N2CC(Cc3ccc(Br)cc3)C2)ncn1`, the “% Inhibition” value is given as -5% and the Z score is listed as 0.82.

For `CC(C)(C)CN1C[C@@H](NC(=O)c2cnc(-c3cccnc3)nc2)CC1=O`, the “% Inhibition” value is on record as -1% and the Z score is given as 0.18.

`CCCCc1nc(-c2nccn2CC(F)(F)F)c[nH]1`: the “% Inhibition” value is on record as -10% and the Z score turned out to be 1.95.

As for `CS(=O)(=O)Nc1ccc(OC(=O)c2cccc(-n3cnnn3)c2)cc1`, the “% Inhibition” value is on record as 0% and the Z score was found to be 0.09.

On to `Cc1cc(C)c(C#N)c(N2C[C@@H](CN3CCCCCC3)[C@@H](CO)C2)n1`, for which the “% Inhibition” value is -3% and the Z score amounted to 0.57.

On to `CC(C)C[C@H]1COCCN1Cc1cccc(C(=O)Nc2ncn(C)n2)c1`, for which the “% Inhibition” value came to 7% and the Z score is given as -0.74.

In the case of `Cc1c(C(=O)N2CCN(C3CC3)CC2)nnn1Cc1ccc(F)cc1F`, the “% Inhibition” value is on record as -11% and the Z score amounted to 2.23.

With `COc1ccc(NC(=O)NCCCn2c(-c3ccc(F)cc3)nc3cccnc32)c(OC)c1`, the “% Inhibition” value was -10% and the Z score came to 0.87.

As to `C[C@@H](C(=O)NCc1ccc(N2CCCC2)cc1)n1cncn1`, the “% Inhibition” value is listed as 0% and the Z score worked out at 0.

In the case of `O=C(C1CCCCCC1)N1CCC(n2cc(-c3ccccc3)nn2)CC1`, the “% Inhibition” value is -5% and the Z score is on record as 0.84.

With `CCCc1[nH]nc(-c2ccccc2)c1NC(=O)c1ccc(C(F)(F)F)cc1`, the “% Inhibition” value was -13% and the Z score is 1.76.

Turning to `CCCc1cc(C(=O)N2CCC[C@@H]2CCc2ccccn2)no1`, the “% Inhibition” value was -14% and the Z score is on record as 2.53.

On to `C[C@H]1CCN(c2nc3ccccc3o2)CCS1(=O)=O`, for which the “% Inhibition” value is recorded as -14% and the Z score was 2.25.

As for `COc1ccc(CCNC(=O)C(=O)N2CCCCC2)cc1`, the “% Inhibition” value is -9% and the Z score is recorded as 1.17.

Turning to `O=C(c1ccc2cc[nH]c2c1)N1CCC(c2nccn2CC2CC2)CC1`, the “% Inhibition” value was -8% and the Z score turned out to be 1.02.

Take `Cc1cc(C(=O)N2CCO[C@@H](C)C2)on1`: the “% Inhibition” value is recorded as -4% and the Z score was found to be 0.44.

As to `Cc1ccc(CN2CCN(C(=O)COc3cccnc3)CC2=O)cc1C`, the “% Inhibition” value is reported as 6% and the Z score is recorded as -1.05.

Turning to `Cn1nc(C(=O)NC2CC2)c2c1CN(C(=O)c1cccc(C#N)c1)C2`, the “% Inhibition” value is -5% and the Z score was found to be 0.58.

`C[C@@H](c1cccs1)N(C)CC(=O)Nc1cccc(N2CCCC2=O)c1`: the “% Inhibition” value was -6% and the Z score is given as 0.52.

Take `O=C1N[C@@H](COCc2ccccc2)C(=O)N2CCC[C@@H]12`: the “% Inhibition” value turned out to be 7% and the Z score was -1.02.

As to `Cn1c(C(=O)N2CCC(c3nccn3CC(N)=O)CC2)cc2ccccc21`, the “% Inhibition” value is recorded as -16% and the Z score is 1.5.
